Experimental findings from ChEMBL document CHEMBL1201862, “PubChem BioAssay data set” (2004) are described below.

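Dose response: 5 concentrations. Exposure: 48 h. Format: 96-well plates. Endpoint: linear interpolation; highest concentration if not reached. GI50 marks 50% less growth.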 The source made the active and inactive calls. Rule as the data show it: active = GI50 up to about 1.1 µM and inactive = higher.

The test system of the experiment is NCI-H322M. Kind of experiment: NCI tumour cell line growth inhibition, 48 h.
On to `CCOc1cc(C2SCC(=O)N2c2ccc(Oc3ccc(Cl)cc3)c(Cl)c2)ccc1O` (stereo not drawn), for which the GI50 was inactive: 16 µM.

Consider `CC1=C(O)C(=O)[C@@H]2O[C@@H]2C1=O`, for which the GI50 was inactive: 24.3 µM.

Take `Nc1nc(SCC(=O)O)nc(O)c1N`: the GI50 is inactive: > 100 µM.

Turning to `CN(C)c1ccc(/C=C/c2ccnc3ccccc23)cc1N`, the GI50 is inactive: 17.1 µM.

For the compound `CC(C)(C)c1cc(CCC(=O)Nc2ccc(Cl)cc2)nc(S)n1`, the GI50 is inactive: > 100 µM.

For the compound `NC(=O)c1csc(C2C=CC(CO)O2)n1` (stereo not drawn), the GI50 was inactive: > 100 µM.

As for `Cc1cccc(/N=C2\NC(=O)C(CC(=O)Nc3ccc(C)cc3C)S2)c1` (stereo not drawn), the GI50 is inactive: > 100 µM.

As to `S=c1[nH]c(Cl)cc2nc(Cl)cn12`, the GI50 was inactive: > 100 µM.

As to `CC(C)C(=O)Nc1nc2c(ncn2C2OC(CO)C(O)C2O)c(=O)[nH]1` (stereo not drawn), the GI50 is inactive: > 100 µM.

For `O=C(NCCCCCCNC(=O)OCCSCCn1cc(C(=O)NC(=O)OCc2ccccc2)c(=O)[nH]c1=O)OCCSCCn1cc(C(=O)NC(=O)OCc2ccccc2)c(=O)[nH]c1=O`, the GI50 was inactive: > 100 µM.

On to `CC(=O)Oc1cc2c(c3ncccc13)OC(C)(C)C2`, for which the GI50 was inactive: 13.3 µM.

`COC(=O)/C=C1\C(=O)N(C(C)=O)c2ccccc21`: the GI50 is inactive: 16.8 µM.

As for `C[C@H](N)C(=O)N[C@@H]1[C@H]2C(=C(O)C[C@@H](O)[C@@H]2O)C(=O)O[C@@H]1C`, the GI50 is inactive: > 100 µM.

As for `C/C=C1/CN2CCC34c5ccccc5N(C)C23C2CC1C4(C(=O)OC)C(OC(C)=O)O2` (stereo not drawn), the GI50 was inactive: > 100 µM.

For `COc1nc(C#CCC(C)O)nc(OC)n1` (stereo not drawn), the GI50 was inactive: 17.6 µM.

In the case of `CC(C)c1cc(C(C)C)c(B(c2ccccc2)c2ccccc2)c(C(C)C)c1Br`, the GI50 was inactive: > 100 µM.

Regarding `O=C1Nc2nccnc2C(=O)N2CCC[C@@H]12`, the GI50 was inactive: > 100 µM.

For `CC(=O)Nc1ccc(C2CC(c3ccc([N+](=O)[O-])cc3)=Nc3ccccc3[S+]2[O-])cc1` (stereo not drawn), the GI50 was inactive: 29.1 µM.

With `O=C1/C(=C/c2ccc(Cl)cc2)CCC/C1=C\c1ccc(O)c(CN2CCCCC2)c1`, the GI50 is inactive: 18 µM.

Regarding `O=C1/C(=C/c2ccccc2O)N=C(c2ccccc2)N1c1nc2ccccc2s1`, the GI50 is inactive: 34 µM.

Turning to `CSc1ncnc2c1ncn2CCC(=O)O`, the GI50 is inactive: > 100 µM.

Regarding `COc1ccc(OC)c(NC(=O)C(=O)Nn2c(S)nc3ccccc3c2=O)c1`, the GI50 is inactive: > 100 µM.

On to `Nc1c(/C=C/c2cc3cc(C4=NCCN4)ccc3o2)[nH]c2cc(C3=NCCN3)ccc12`, for which the GI50 is inactive: 22.6 µM.

With `Brc1ccc(-c2nc(-c3ccc(Br)cc3)n(-c3ccccc3)n2)cc1`, the GI50 was inactive: > 100 µM.

With `CCCCOC(=O)Nc1ccc(S(=O)(=O)Nc2ccccc2Cl)cc1`, the GI50 is inactive: 25 µM.

On to `CN/N=C(\C)CC(=O)Nc1cccc(Cl)c1C`, for which the GI50 is inactive: > 100 µM.

For `N=c1c2c(=S)n(-c3ccccc3)c(=S)n(-c3ccccc3)c2nc(SCCCN2CCN(c3cccc(Cl)c3)CC2)n1-c1ccccc1`, the GI50 was inactive: 31.8 µM.

As to `O=c1c2cccnc2cc(-c2ccccc2)n1CCO`, the GI50 was inactive: > 100 µM.

As for `Oc1ccc2c(c1)CCc1c-2n(CCN2CCOCC2)c2ccc(O)cc12`, the GI50 was inactive: 43.6 µM.

Regarding `O=CNCNCCO`, the GI50 was inactive: > 100 µM.

Regarding `O=C1C(Cl)C(c2cccc(Cl)c2)N1c1ccc(-n2c(S)nc3ccccc3c2=O)cc1` (stereo not drawn), the GI50 was inactive: 25.7 µM.

In the case of `COC(=O)Nc1nc2cc(Oc3ccc4nc(NC(=O)OC)[nH]c4c3)ccc2[nH]1`, the GI50 is inactive: 1.14 µM.

For the compound `CCOC(=O)c1nc2ccc(C(F)(F)F)cc2nc1Nc1ccc(F)cc1`, the GI50 is inactive: > 100 µM.

For the compound `O=C(CNS(=O)(=O)Cc1ccccc1)NNc1ccccc1`, the GI50 was inactive: > 100 µM.

Regarding `O=C(/C=C/c1ccc2c(c1)OCO2)CC(=O)C(=O)c1c[nH]c2ccccc12`, the GI50 is inactive: 34.6 µM.

`CSC1=NC(=O)CCN1C1OCC(OC(C)=O)C(OC(C)=O)C1OC(C)=O` (stereo not drawn): the GI50 was inactive: 20.9 µM.

Take `O=c1n(C2CCCCC2)c(=C(Cl)Cl)c(=C(Cl)Cl)n1C1CCCCC1`: the GI50 was inactive: > 100 µM.

For the compound `N=C(N)SCc1cccc([N+](=O)[O-])c1`, the GI50 is inactive: 55.7 µM.

In the case of `O=C1c2cccc([N+](=O)[O-])c2C(=O)c2nccnc21`, the GI50 is inactive: 2.2 µM.

On to `CCOc1cc(/C=C/C=C/c2ccc(N(C)C)cc2)[s+]c2ccccc12`, for which the GI50 was inactive: > 100 µM.

`O=C(CC(C(=O)c1cccs1)c1ccsc1)c1ccco1` (stereo not drawn): the GI50 was inactive: 12.4 µM.

With `C[C@H]1C[C@H](C)c2ccccc2N(C)/C1=N\c1ccccc1`, the GI50 was inactive: 25.5 µM.

For `CCOC(=O)c1nc2ccc(C(F)(F)F)cc2[nH]c1=O`, the GI50 was inactive: > 100 µM.

Turning to `Cc1nc2c(O)cc3c4c(n(Cc5ccccc5)c3c2nc1C)C(=O)CCC4`, the GI50 is inactive: 37.5 µM.

On to `Cc1c(CCCl)c(N=[N+]=[N-])n2c(nc3ccccc32)c1C#N`, for which the GI50 was inactive: 3.33 µM.

For the compound `Cn1ccnc1SC(F)(F)c1nc2ccccc2o1`, the GI50 was inactive: > 100 µM.

Consider `O=c1[nH]c(=O)n(C2OC(CO)C(O)C2O)cc1Oc1ccccc1` (stereo not drawn), for which the GI50 is inactive: > 100 µM.

In the case of `CCOC(=O)C1=C(OC(OCC)C(C)[Se]c2ccccc2)CCC1` (stereo not drawn), the GI50 is inactive: > 100 µM.

For the compound `Clc1ccc(CSC2=NCCN2)cc1Cl`, the GI50 was inactive: 20.4 µM.

Consider `CCOC(=O)C(SCCO)C(C(=O)OCC)n1cnc2c(=O)[nH]c(NC(C)=O)nc21` (stereo not drawn), for which the GI50 was inactive: > 100 µM.

For `O=c1[nH]c(=O)n(COCc2ccccc2)c2ccc(Br)cc12`, the GI50 was inactive: > 100 µM.

For `Clc1ccc(-c2cc3nc4ccccc4nc3o2)cc1`, the GI50 was inactive: > 100 µM.

As to `Cc1[nH]c(=O)[nH]c(=O)c1C(=O)N(CCO)Cc1ccccc1`, the GI50 is inactive: > 100 µM.

With `O=C1NC(=O)C(C(=O)C(=O)Nc2ccc(Br)cc2)C(=O)N1`, the GI50 was inactive: > 100 µM.

For `O=c1[nH]c(Br)nc2c(N3CCCCC3)c[nH]c12`, the GI50 is inactive: > 100 µM.

On to `CC(C)[Si](OC1=C(c2ccccc2)C(NC(=O)/C=C/c2ccc([N+](=O)[O-])cc2)CCC1)(C(C)C)C(C)C` (stereo not drawn), for which the GI50 was inactive: > 100 µM.

For `CCOc1ccccc1/N=N/c1c(-c2ccccc2)nn(C(=O)CC(=O)Nc2cccc(Cl)c2)c1-c1ccccc1`, the GI50 was inactive: 49.2 µM.

As for `CC[n+]1c(/C=C/c2ccc(N(CCCl)CCCl)cc2)ccc2cc(Br)ccc21`, the GI50 was inactive: 3.45 µM.

For the compound `O=C(NCCN1CCCCC1)c1cccc(I)c1`, the GI50 was inactive: > 100 µM.

`Clc1ccccc1C1=NN(c2ccccc2)C2c3ccccc3OCC12` (stereo not drawn): the GI50 is inactive: > 100 µM.

As for `Cn1c(N=P(c2ccccc2)(c2ccccc2)c2ccccc2)c([N+](=O)[O-])c(=O)n(C)c1=O`, the GI50 is inactive: > 100 µM.

As to `COc1ccc(/N=C2/C(=N/c3ccc(OC)cc3)N(c3ccccc3)C(=S)N2N=C=C2Sc3ccccc3N2C)cc1`, the GI50 is inactive: > 100 µM.

As to `O=C1N=C(SC2OC(CO)C(O)C(O)C2O)S/C1=C\c1ccccc1` (stereo not drawn), the GI50 was inactive: > 100 µM.

As to `CCOC(=O)c1c[nH]c2c(Sc3ccccc3)nccc2c1=O`, the GI50 was inactive: > 100 µM.

On to `COc1cc2cc3c4c(cc(OC)c(OC)c4c2cc1OC)CCN3C(=O)CCCC(=O)O`, for which the GI50 was inactive: > 100 µM.

In the case of `COc1ccccc1NC(=S)N/N=C/c1cccc(C)n1`, the GI50 is inactive: 10.9 µM.

As to `c1cc2cc(Cc3ccc4[nH]ccc4c3)ccc2[nH]1`, the GI50 is inactive: 19 µM.

Take `Cc1nc2c(nc1C)-c1c(c3c(n1Cc1ccccc1)C(=O)CCC3)C(=O)C2=O`: the GI50 was inactive: 17.1 µM.

Regarding `O=C1/C(=C/c2ccco2)N=C(c2ccccc2)N1c1cc2cc(Sc3ccccc3)ccc2[nH]1`, the GI50 was inactive: > 25 µM.

For `COc1ccc(/N=N/c2c(-c3ccccc3)nn(C(=O)CC(=O)Nc3ccccc3Cl)c2-c2ccccc2)cc1`, the GI50 was inactive: > 100 µM.

On to `O=C(Nc1cccc(Cl)c1)C(=O)C(C(=O)c1ccc2ccccc2c1)C1OC(=O)c2ccccc21` (stereo not drawn), for which the GI50 is inactive: 17.4 µM.

For `COC(=O)C(NC(=O)CSc1nnc(COc2ccc(Cl)cc2)n1-c1ccccc1)C(C)C` (stereo not drawn), the GI50 was inactive: 24.2 µM.

Regarding `O=C1CC(c2ccccc2Cl)C2(C(=O)NC(=O)NC2=O)C(c2ccccc2Cl)C1` (stereo not drawn), the GI50 is inactive: 43.9 µM.

In the case of `O=[N+]([O-])C(=C/c1ccccc1)/C(=C\c1ccccc1)[N+](=O)[O-]`, the GI50 was inactive: 25.8 µM.

Regarding `CCN1C(=O)/C(=C/Nc2ccccc2)S/C1=N/Nc1nc(-c2ccc(O)c(O)c2)cs1`, the GI50 was inactive: 11.6 µM.

As to `OC12c3ccccc3C1CCCCCCCCCC21OCCO1` (stereo not drawn), the GI50 was inactive: > 100 µM.

Regarding `CC12OC3(O)C4C5CC(C6C5C3C61)C42` (stereo not drawn), the GI50 is inactive: > 100 µM.

`Cn1c(=O)oc2cc(C3CCC(=O)N3Cc3ccc(Cl)cc3)ccc21` (stereo not drawn): the GI50 was inactive: > 100 µM.

With `Cc1ccc(C(=O)Nc2ccc(CP(=O)(O)O)cc2)cc1NC(=O)c1cccc(NC(=O)Nc2cccc(C(=O)Nc3cc(C(=O)Nc4ccc(CP(=O)(O)O)cc4)ccc3C)c2)c1`, the GI50 is inactive: > 100 µM.

Take `CN(CCC(=O)O)C1=Nc2ccc(Cl)cc2C(c2ccccc2)=[N+]([O-])C1`: the GI50 was inactive: > 100 µM.

In the case of `Cc1ccc(/N=N/c2c(O)ccc3cc(S(=O)(=O)O)ccc23)cc1`, the GI50 was inactive: 60.4 µM.

As for `CC(O)CCCCC(O)CCC[C@H](O)[C@H]1CCC([C@H]2CCC([C@@H](O)CCCCCCCCCCCCC3=C[C@H](C)OC3=O)O2)O1` (stereo partly drawn), the GI50 is inactive: 12.8 µM.

With `O=C1Oc2cc(O)cc(/C=C/c3ccc(O)cc3)c2[C@@]12c1c(O)cc(O)cc1OC2c1cccc(O)c1` (stereo partly drawn), the GI50 was inactive: 21.1 µM.
